Some of the results follow.
Assays:
Assay in all cases: glycan array binding signal (z-score within array); higher = stronger binding
Conditions in all cases: glycan notation: IUPAC condensed, linker removed
Gal(b1-2)Gal = biological target: Gal(b1-2)Gal
Outline: (§1)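 Glycan array data came from 3228 arrays in the Consortium for Functional Glycomics database, and only arrays with an available protein sequence were kept. Glycan names were put into IUPAC-condensed notation, and columns mapping to the same glycan were averaged. The binding signal is a within-array Z-score, averaged across arrays of one protein sequence run at different concentrations or buffers and across linkers. A negative Z-score can be read as non-binding.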

Gal(b1-3)Gal = biological target: Gal(b1-3)Gal
Outline: as §1

Gal(b1-3)Gal(b1-4)GlcNAc = biological target: Gal(b1-3)Gal(b1-4)GlcNAc
Outline: as §1

Gal(b1-3)GalNAc = biological target: Gal(b1-3)GalNAc
Outline: as §1

[1] = biological target: Gal(b1-3)GalNAc(a1-3)[Fuc(a1-2)]Gal(b1-4)Glc
Outline: as §1

[2] = biological target: Gal(b1-3)GalNAc(a1-3)[Fuc(a1-2)]Gal(b1-4)GlcNAc
Outline: as §1

Gal(b1-3)GalNAc(b1-3)Gal = biological target: Gal(b1-3)GalNAc(b1-3)Gal
Outline: as §1

[3] = biological target: Gal(b1-3)GalNAc(b1-3)Gal(a1-4)Gal(b1-4)Glc
Outline: as §1

[4] = biological target: Gal(b1-3)GalNAc(b1-4)Gal(b1-4)Glc
Outline: as §1

[5] = biological target: Gal(b1-3)GalNAc(b1-4)[Neu5Ac(a2-3)]Gal(b1-4)Glc
Outline: as §1

Gal(b1-3)GlcNAc = biological target: Gal(b1-3)GlcNAc
Outline: as §1

[6] = biological target: Gal(b1-3)GlcNAc(a1-3)Gal(b1-4)GlcNAc
Outline: as §1

[7] = biological target: Gal(b1-3)GlcNAc(a1-6)Gal(b1-4)GlcNAc
Outline: as §1

Gal(b1-3)GlcNAc(b1-2)Man = biological target: Gal(b1-3)GlcNAc(b1-2)Man
Outline: as §1

[8] = biological target: Gal(b1-3)GlcNAc(b1-2)Man(a1-3)[Gal(b1-3)GlcNAc(b1-2)Man(a1-6)]Man(b1-4)GlcNAc(b1-4)GlcNAc
Outline: as §1

[9] = biological target: Gal(b1-3)GlcNAc(b1-2)Man(a1-3)[Gal(b1-3)GlcNAc(b1-2)Man(a1-6)]Man(b1-4)GlcNAc(b1-4)[Fuc(a1-6)]GlcNAc
Outline: as §1

[10] = biological target: Gal(b1-3)GlcNAc(b1-2)Man(a1-3)[GlcNAc(b1-4)][Gal(b1-3)GlcNAc(b1-2)Man(a1-6)]Man(b1-4)GlcNAc(b1-4)GlcNAc
Outline: as §1

[11] = biological target: Gal(b1-3)GlcNAc(b1-2)[Gal(b1-3)GlcNAc(b1-6)]Man(a1-6)[Gal(b1-3)GlcNAc(b1-2)Man(a1-3)]Man(b1-4)GlcNAc(b1-4)GlcNAc
Outline: as §1

[12] = biological target: Gal(b1-3)GlcNAc(b1-3)Gal(b1-3)GlcNAc
Outline: as §1

[13] = biological target: Gal(b1-3)GlcNAc(b1-3)Gal(b1-4)Glc
Outline: as §1

[14] = biological target: Gal(b1-3)GlcNAc(b1-3)Gal(b1-4)GlcNAc
Outline: as §1

[15] = biological target: Gal(b1-3)GlcNAc(b1-3)Gal(b1-4)GlcNAc(b1-2)Man(a1-3)[Gal(b1-3)GlcNAc(b1-3)Gal(b1-4)GlcNAc(b1-2)Man(a1-6)]Man(b1-4)GlcNAc(b1-4)GlcNAc
Outline: as §1

[16] = biological target: Gal(b1-3)GlcNAc(b1-3)Gal(b1-4)GlcNAc(b1-2)[Gal(b1-3)GlcNAc(b1-3)Gal(b1-4)GlcNAc(b1-6)]Man(a1-6)[Gal(b1-3)GlcNAc(b1-3)Gal(b1-4)GlcNAc(b1-2)Man(a1-3)]Man(b1-4)GlcNAc(b1-4)[Fuc(a1-6)]GlcNAc
Outline: as §1

[17] = biological target: Gal(b1-3)GlcNAc(b1-3)Gal(b1-4)GlcNAc(b1-3)Gal(b1-4)GlcNAc(b1-2)[Gal(b1-3)GlcNAc(b1-3)Gal(b1-4)GlcNAc(b1-3)Gal(b1-4)GlcNAc(b1-6)]Man(a1-6)[Gal(b1-3)GlcNAc(b1-3)Gal(b1-4)GlcNAc(b1-3)Gal(b1-4)GlcNAc(b1-2)Man(a1-3)]Man(b1-4)GlcNAc(b1-4)[Fuc(a1-6)]GlcNAc
Outline: as §1

[18] = biological target: Gal(b1-3)GlcNAc(b1-3)Gal(b1-4)GlcNAc(b1-6)[Gal(b1-3)GlcNAc(b1-3)]Gal(b1-4)Glc
Outline: as §1

[19] = biological target: Gal(b1-3)GlcNAc(b1-3)Gal(b1-4)[Fuc(a1-3)]GlcNAc
Outline: as §1

[20] = biological target: Gal(b1-3)GlcNAc(b1-3)Gal(b1-4)[Fuc(a1-3)]GlcNAc(b1-6)[Gal(b1-3)GlcNAc(b1-3)]Gal(b1-4)Glc
Outline: as §1

[21] = biological target: Gal(b1-3)GlcNAc(b1-3)GalNAc
Outline: as §1

[22] = biological target: Gal(b1-3)GlcNAc(b1-6)Gal(b1-4)GlcNAc
Outline: as §1

[23] = biological target: Gal(b1-3)GlcNAc(b1-6)GalNAc
Outline: as §1

[24] = biological target: Gal(b1-3)GlcNAc(b1-6)[Gal(b1-3)]GalNAc
Outline: as §1

Gal(b1-3)GlcNAc6S = biological target: Gal(b1-3)GlcNAc6S
Outline: as §1

[25] = biological target: Gal(b1-3)[Fuc(a1-4)]GlcNAc
Outline: as §1

[26] = biological target: Gal(b1-3)[Fuc(a1-4)]GlcNAc(b1-2)Man
Outline: as §1

[27] = biological target: Gal(b1-3)[Fuc(a1-4)]GlcNAc(b1-2)Man(a1-3)[Gal(b1-3)[Fuc(a1-4)]GlcNAc(b1-2)Man(a1-6)]Man(b1-4)GlcNAc(b1-4)[Fuc(a1-6)]GlcNAc
Outline: as §1

[28] = biological target: Gal(b1-3)[Fuc(a1-4)]GlcNAc(b1-3)Gal(b1-3)[Fuc(a1-4)]GlcNAc
Outline: as §1

[29] = biological target: Gal(b1-3)[Fuc(a1-4)]GlcNAc(b1-3)Gal(b1-4)[Fuc(a1-3)]GlcNAc
Outline: as §1

B1: GS13686A-pdi-553-26-553 (Parabacteroides distasonis) (protein)
chain: NENPDKPTDDVNYNMNEPRLASTLRGGLIIEGNVEQRLKPLQIDFYSQMTVDGGGWGTKNYIQDDEWNNLVWEEYLKQIASINIVIRSLTEKDKDAYANTIAFARIWRVYVHTLAADKFGPMPFPAYEIVEANPPYKSLKDIYDEYFRELDAAINGFNDSAQPIFSDAGIDLIYKNDVSKWKRFANSLRLRLAVRLTEVDQEKCIAEANAAISSPAGLISDKADNAYMPPKADGSWGQDYNYTMFQITWSGPICMSKSVEKLVTNIGGVAWPQGVVNQTSGVAVSSVHPEKVDPRAPKIFQPGIENGDWKGLVYGPKAEEANTGIYQSKQCAELGFIIKDGYPYKSRPYDLFLSEEVHFLKAELYARGFIAGDAKSEYEAGVRASFATWGVTSEVDDYLTSTEKNEAGTSARYDDQQGAGNTALEKIITQKYIAGIPDLAQEGWNDKRRLNLPRLDVAVYRDQAVYNNNDKDILKSANFIKRMRYPTKESLINATEYEKGKSMLGGKGDIVSTPLWWDKNSNYCTSSK
glycan array binding signal (z-score) (Gal(b1-2)Gal): -0.367 | glycan array binding signal (z-score) (Gal(b1-3)Gal): -0.215 | glycan array binding signal (z-score) (Gal(b1-3)Gal(b1-4)GlcNAc): -0.316 | glycan array binding signal (z-score) (Gal(b1-3)GalNAc): 0.011 | glycan array binding signal (z-score) [1]: -0.021 | glycan array binding signal (z-score) [2]: -0.478 | glycan array binding signal (z-score) (Gal(b1-3)GalNAc(b1-3)Gal): 0.196 | glycan array binding signal (z-score) [3]: -0.148 | glycan array binding signal (z-score) [4]: 0.156 | glycan array binding signal (z-score) [5]: 0.13 | glycan array binding signal (z-score) (Gal(b1-3)GlcNAc): -0.223 | glycan array binding signal (z-score) [6]: 0.198 | glycan array binding signal (z-score) [7]: -0.075 | glycan array binding signal (z-score) (Gal(b1-3)GlcNAc(b1-2)Man): 0.482 | glycan array binding signal (z-score) [8]: 0.154 | glycan array binding signal (z-score) [9]: 0.29 | glycan array binding signal (z-score) [10]: -0.108 | glycan array binding signal (z-score) [11]: 0.046 | glycan array binding signal (z-score) [12]: 0 | glycan array binding signal (z-score) [13]: -0.082 | glycan array binding signal (z-score) [14]: -0.194 | glycan array binding signal (z-score) [15]: 0.068 | glycan array binding signal (z-score) [16]: 1.83 | glycan array binding signal (z-score) [17]: 0.051 | glycan array binding signal (z-score) [18]: 0.072 | glycan array binding signal (z-score) [19]: -0.361 | glycan array binding signal (z-score) [20]: -0.362 | glycan array binding signal (z-score) [21]: 0.013 | glycan array binding signal (z-score) [22]: -0.32 | glycan array binding signal (z-score) [23]: 1.97 | glycan array binding signal (z-score) [24]: 0.013 | glycan array binding signal (z-score) (Gal(b1-3)GlcNAc6S): -0.201 | glycan array binding signal (z-score) [25]: -0.111 | glycan array binding signal (z-score) [26]: 0.543 | glycan array binding signal (z-score) [27]: 0.482 | glycan array binding signal (z-score) [28]: -0.069 | glycan array binding signal (z-score) [29]: -0.283

Source: the supplement of paper PMC8728848
